Reference: ChEMBL document CHEMBL1154674, “Synthesis and evaluation of three 18F-labeled aminophenylbenzothiazoles as amyloid imaging agents” (J Med Chem, 2009)
The source gives many values for each of these; only a part stands here.

Assays:
Type in all cases: ADME, organism-based, Macaca mulatta
[1] = Drug level in normal rhesus monkey thalamus assessed as standard uptake value at 96.3 MBq, iv after 175 mins by microPET; details: in vivo
[2] = Drug level in normal rhesus monkey thalamus assessed as standard uptake value at 96.3 MBq, iv after 85 mins by microPET; details: in vivo
[3] = Drug level in normal rhesus monkey parietal cortex assessed as standard uptake value at 96.3 MBq, iv after 125 mins by microPET; details: in vivo
[4] = Drug level in normal rhesus monkey parietal cortex assessed as standard uptake value at 96.3 MBq, iv after 65 mins by microPET; details: in vivo
[5] = Drug level in normal rhesus monkey parietal cortex assessed as standard uptake value at 96.3 MBq, iv after 85 mins by microPET; details: in vivo
[6] = Drug level in normal rhesus monkey cerebellum assessed as standard uptake value at 96.3 MBq, iv after 27.5 mins by microPET; details: in vivo
[7] = Drug level in normal rhesus monkey white matter assessed as standard uptake value at 96.3 MBq, iv after 125 mins by microPET; details: in vivo
[8] = Drug level in normal rhesus monkey white matter assessed as standard uptake value at 96.3 MBq, iv after 14 mins by microPET; details: in vivo
[9] = Drug level in normal rhesus monkey parietal cortex assessed as standard uptake value at 96.3 MBq, iv after 145 mins by microPET; details: in vivo
[10] = Drug level in normal rhesus monkey cerebellum assessed as standard uptake value at 96.3 MBq, iv after 57.5 mins by microPET; details: in vivo
[11] = Drug level in normal rhesus monkey cerebellum assessed as standard uptake value at 96.3 MBq, iv after 37.5 mins by microPET; details: in vivo, 0.625 h
[12] = Drug level in normal rhesus monkey white matter assessed as standard uptake value at 96.3 MBq, iv after 42.5 mins by microPET; details: in vivo
[13] = Drug level in normal rhesus monkey white matter assessed as standard uptake value at 96.3 MBq, iv after 135 mins by microPET; details: in vivo, 2.25 h
[14] = Drug level in normal rhesus monkey frontal cortex assessed as standard uptake value at 96.3 MBq, iv after 0.5 mins by microPET; details: in vivo
[15] = Drug level in normal rhesus monkey white matter assessed as standard uptake value at 96.3 MBq, iv after 17.5 mins by microPET; details: in vivo
[16] = Drug level in normal rhesus monkey white matter assessed as standard uptake value at 109.4 MBq, iv after 93 mins by microPET; details: in vivo, 1.55 h
[17] = Drug level in normal rhesus monkey pons assessed as standard uptake value at 109.4 MBq, iv after 111 mins by microPET; details: in vivo
[18] = Drug level in normal rhesus monkey parietal cortex assessed as standard uptake value at 109.4 MBq, iv after 0.875 mins by microPET; details: in vivo, 52 s
[19] = Drug level in normal rhesus monkey cerebellum assessed as standard uptake value at 109.4 MBq, iv after 42.5 mins by microPET; details: in vivo
[20] = Drug level in normal rhesus monkey parietal cortex assessed as standard uptake value at 109.4 MBq, iv after 129 mins by microPET; details: in vivo, 2.15 h
[21] = Drug level in normal rhesus monkey frontal cortex assessed as standard uptake value at 109.4 MBq, iv after 27.5 mins by microPET; details: in vivo
[22] = Drug level in normal rhesus monkey parietal cortex assessed as standard uptake value at 109.4 MBq, iv after 75 mins by microPET; details: in vivo, 1.25 h
[23] = Drug level in normal rhesus monkey white matter assessed as standard uptake value at 109.4 MBq, iv after 42.5 mins by microPET; details: in vivo
[24] = Drug level in normal rhesus monkey cerebellum assessed as standard uptake value at 109.4 MBq, iv after 37.5 mins by microPET; details: in vivo, 0.625 h
[25] = Drug level in normal rhesus monkey white matter assessed as standard uptake value at 109.4 MBq, iv after 69 mins by microPET; details: in vivo, 1.15 h
[26] = Drug level in normal rhesus monkey cerebellum assessed as standard uptake value at 81.2 MBq, iv after 52.5 mins by microPET; details: in vivo, 0.875 h
[27] = Drug level in normal rhesus monkey white matter assessed as standard uptake value at 81.2 MBq, iv after 4.5 mins by microPET; details: in vivo, 0.075 h
[28] = Drug level in normal rhesus monkey frontal cortex assessed as standard uptake value at 81.2 MBq, iv after 115 mins by microPET; details: in vivo
[29] = Drug level in normal rhesus monkey white matter assessed as standard uptake value at 81.2 MBq, iv after 95 mins by microPET; details: in vivo
[30] = Drug level in normal rhesus monkey frontal cortex assessed as standard uptake value at 81.2 MBq, iv after 135 mins by microPET; details: in vivo, 2.25 h
[31] = Drug level in normal rhesus monkey parietal cortex assessed as standard uptake value at 81.2 MBq, iv after 8 mins by microPET; details: in vivo
[32] = Drug level in normal rhesus monkey frontal cortex assessed as standard uptake value at 81.2 MBq, iv after 8 mins by microPET; details: in vivo
[33] = Drug level in normal rhesus monkey thalamus assessed as standard uptake value at 81.2 MBq, iv after 175 mins by microPET; details: in vivo
[34] = Drug level in normal rhesus monkey white matter assessed as standard uptake value at 81.2 MBq, iv after 6 mins by microPET; details: in vivo, 0.1 h
[35] = Drug level in normal rhesus monkey parietal cortex assessed as standard uptake value at 81.2 MBq, iv after 135 mins by microPET; details: in vivo, 2.25 h
[36] = Drug level in normal rhesus monkey white matter assessed as standard uptake value at 81.2 MBq, iv after 22.5 mins by microPET; details: in vivo, 0.375 h
[37] = Drug level in normal rhesus monkey white matter assessed as standard uptake value at 81.2 MBq, iv after 165 mins by microPET; details: in vivo, 2.75 h
[38] = Drug level in normal rhesus monkey white matter assessed as standard uptake value at 81.2 MBq, iv after 115 mins by microPET; details: in vivo
[39] = Drug level in normal rhesus monkey pons assessed as standard uptake value at 81.2 MBq, iv after 0.5 mins by microPET; details: in vivo
[40] = Drug level in normal rhesus monkey parietal cortex assessed as standard uptake value at 81.2 MBq, iv after 95 mins by microPET; details: in vivo
[41] = Drug level in normal rhesus monkey thalamus assessed as standard uptake value at 81.2 MBq, iv after 52.5 mins by microPET; details: in vivo, 0.875 h
[42] = Drug level in normal rhesus monkey pons assessed as standard uptake value at 81.2 MBq, iv after 47.5 mins by microPET; details: in vivo
[43] = Drug level in normal rhesus monkey pons assessed as standard uptake value at 81.2 MBq, iv after 57.5 mins by microPET; details: in vivo
[44] = Drug level in normal rhesus monkey thalamus assessed as standard uptake value at 81.2 MBq, iv after 32.5 mins by microPET; details: in vivo

An SUV [1] of 1.67, an SUV [2] of 2.23 and an SUV [3] of 1.26 were found for `CN(C)c1ccc2nc(-c3ccc([18F])cc3)sc2c1` in this work. For the same compound, the SUV [4] was 1.57, the SUV [5] was 1.44 and the SUV [6] was 1.47. The SUV [7] was 1.51, the SUV [8] was 1.19 and the SUV [9] was 1.21. It also gave an SUV [10] of 1.2, an SUV [11] of 1.46 and an SUV [12] of 1.42. The SUV [13] was 1.57, the SUV [14] was 0.62 and the SUV [15] was 1.25.
An SUV [16] of 3.7, an SUV [17] of 4.84 and an SUV [18] of 2.58 were found for `Nc1ccc2nc(-c3ccc([18F])cc3)sc2c1` in this work. The SUV [19] was 3.59, the SUV [20] was 3.52 and the SUV [21] was 5.2. It also gave an SUV [22] of 3.95, an SUV [23] of 3.37 and an SUV [24] of 3.77. It also gave an SUV [25] of 3.64.
An SUV [26] of 2.432, an SUV [27] of 2.875 and an SUV [28] of 4.66 were found for `CNc1ccc2nc(-c3ccc([18F])cc3)sc2c1` in this work. The SUV [29] was 3.97, the SUV [30] was 4.473 and the SUV [31] was 5.021. The SUV [32] was 5.469, the SUV [33] was 4.58 and the SUV [34] was 3.13. For the same compound, the SUV [35] was 2.47, the SUV [36] was 3.763 and the SUV [37] was 3.936. It also gave an SUV [38] of 4.086, an SUV [39] of 0.865 and an SUV [40] of 2.875. The SUV [41] was 5.584, the SUV [42] was 5.189 and the SUV [43] was 5.866. It also gave an SUV [44] of 5.45.
